Results from US20160039904A1, “STABILIZED SINGLE HUMAN CD4 DOMAINS AND FUSION PROTEINS” (priority 2013, published 2016).

Columns and labels:
[1] = Size-exclusion chromatography in PBS at pH 7.4; format: physicochemical
[2] = test system: HIV-1 Env Bal; assay: HIV-1 Env-mediated cell-cell fusion; format: cell-based; details: Table 4, clade B, R5
[3] = test system: CD4 D1-specific antibody (D9); assay: Interaction with CD4 D1-specific antibody D9; format: binding; details: FIG. 9
Protocol: To determine if the A55V mutation results in conformational changes, interaction with a CD4 D1-specific antibody (D9) was assessed.

[4] = test system: human blood cell lines BJAB (B cell) and SUP-T1 (T cell); assay: Binding to MHC-expression cells; format: cell-based
[5] = test system: HIV-1 Env JRFL; assay: HIV-1 Env-mediated cell-cell fusion; format: cell-based; details: Table 4, clade B, R5
[6] = test system: HIV-1 Bal; assay: Pseudotyped HIV-1 neutralization (HOS-CD4-CCR5 cells); format: cell-based; details: Table 2, clade B, R5
Protocol: To determine the potency and breadth of HIV-1 neutralization by the D1 mutants, viruses pseudotyped with Envs from HIV-1 isolates representing clades A-E and using either CCR5 (R5) or CXCR4 (X4) or both (R5X4) as a coreceptor were included. Pseudoviruses were derived from 293T cells and a neutralization assay was performed in duplicate using HOS-CD4-CCR5 (for all R5 and dual tropic viruses) or HOS-CD4-CXCR4 cell lines as described in Chen et al., Proc. Natl. Acad. Sci. USA, 105: 17121-17126 (2008)). Luminescence was measured 48 hours post-infection and the percentage neutralization was calculated by the following formula: (1—average RLU of inhibitor-containing wells/average RLU or virus-only wells)×100.

B1: mD1.23: single domain CD4 (D1) mutant, SEQ ID NO: 2 (protein)
chain: KKVVYGKKGDTVELTCTASQKKNIQFHWKDSNQIKILGNQGSFLTKGPSKLNDRADSRRSLWDQGNFPLIIKNLKPEDSDTYICEVEDQKEEVQLVVVG
In the case of B1, the “oligomeric state by size-exclusion chromatography” value [1] is reported as “uniformly monomeric”.

B2: mD1.22Fc: Fc-fusion protein of mD1.22 (mD1-Fc, SEQ ID NO: 17) (protein)
chain: KKVVYGKKGDTVELTCTASQKKNIQFHWKNSNQIKILGNQGSFLTKGPSKLNDRVDSRRSLWDQGNFPLIIKNLKPEDSDTYICEVEDQKEEVQLVVVGGP[human IgG1 Fc cut from this listing]
With B2 the IC90 [2] was 135 nM, the “binding with the D9 antibody” value [3] was “largely decreased binding” and the “binding with MHC-expression cells” value [4] was “decreased binding; also recorded: does not bind”. It also gave an IC50 [5] of 66 nM, an IC90 [5] of over 222 nM and an IC50 [6] of 0.4 nM. For the same molecule, the IC90 [6] was 1.9 nM.

Entries after “also recorded” stand apart in the source; their conditions may differ.
